According to publication PMC7835222:
No constants are given. Whether binding was seen depends on the method and setting. For some assays here: In cells and extracts the contact can be indirect. Some results given as binding are weak or reduced against the parent protein; the word gives no strength. Sequences can lack the tags named with a protein. Values belong to the binder of their own block, whether it stands above or below them.

Experiments:
[1] = biological target: GST-tagged PRMT3 full-length protein (pGEX-PR-FL) (human) (UniProt O60678); experiment: pull-down; 15 µg GST-tagged PRMT3 on Glutathione Sepharose, lysates of HEK293 cells overexpressing HA-tagged ALDH members; 4 °C, 10 h; blot with HA antibody; only the target purified
[2] = biological target: GFP-tagged PRMT3 full-length protein (pEGFP-PR-FL) (human) (UniProt O60678); experiment: co-IP; HEK293 cells co-transfected; GFP-tagged protein precipitated with GFP Trap A beads, 4 °C, 10 h; 10 mM Tris pH 7.5, 150 mM NaCl, 0.5 mM EDTA, 0.1% NP-40; blot with Myc (forward) or HA (reverse) antibody
[3] = biological target: Gal4 DNA-binding domain fusion of full-length human PRMT3 (pGBKT7-PRMT3) (human) (UniProt O60678); experiment: two-hybrid; pGBKT7-PRMT3 and pGADT7-ALDH1A1 co-transformed in S. cerevisiae; selection medium with Aureobasidin-A and X-α-Gal lacking Trp and Leu, or Trp, Leu, His and Ade (two or four reporter genes)
[4] = biological target: T1, GST-tagged C-terminal region of ALDH1A1 (pGEX-AL-CTR) (human) (UniProt P00352); experiment: pull-down; 15 µg GST-tagged ALDH1A1 (full length or truncated) on Glutathione Sepharose, lysates of HEK293 cells overexpressing GFP-tagged PRMT proteins; 4 °C, 10 h; blot with GFP antibody; only the target purified
T1 sequence: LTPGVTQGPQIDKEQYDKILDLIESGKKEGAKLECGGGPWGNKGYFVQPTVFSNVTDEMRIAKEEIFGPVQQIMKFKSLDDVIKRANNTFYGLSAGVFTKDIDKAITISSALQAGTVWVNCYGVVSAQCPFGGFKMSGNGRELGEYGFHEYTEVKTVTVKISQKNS

[5] = biological target: T2, GST-tagged N-terminal region of ALDH1A1 (pGEX-AL-NTR) (human) (UniProt P00352); experiment: as above
T2 sequence: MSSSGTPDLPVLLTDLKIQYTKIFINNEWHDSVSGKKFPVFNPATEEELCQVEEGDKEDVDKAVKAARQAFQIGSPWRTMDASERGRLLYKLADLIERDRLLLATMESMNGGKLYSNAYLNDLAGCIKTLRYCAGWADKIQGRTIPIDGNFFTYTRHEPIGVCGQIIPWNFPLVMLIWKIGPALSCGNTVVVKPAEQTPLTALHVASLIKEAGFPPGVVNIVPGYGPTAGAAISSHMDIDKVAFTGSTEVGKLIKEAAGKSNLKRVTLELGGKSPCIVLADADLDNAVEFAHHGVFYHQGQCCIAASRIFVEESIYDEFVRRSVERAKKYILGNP

[6] = biological target: Gal4 DNA-binding domain fusion of full-length human PRMT3 (pGBKT7-PRMT3) (human) (UniProt O60678); experiment: two-hybrid; library screen, Matchmaker Gold Yeast Two-Hybrid System; full-length PRMT3 (pGBKT7-PR-FL) as bait against the Mate & Plate universal human normalized cDNA library

binding [1]: binds
B1: HA-tagged ALDH1A1 (pCDNA4-HA-AL-FL) (enzyme, UniProt P00352 1-501)
chain: MSSSGTPDLPVLLTDLKIQYTKIFINNEWHDSVSGKKFPVFNPATEEELCQVEEGDKEDVDKAVKAARQAFQIGSPWRTMDASERGRLLYKLADLIERDRLLLATMESMNGGKLYSNAYLNDLAGCIKTLRYCAGWADKIQGRTIPIDGNFFTYTRHEPIGVCGQIIPWNFPLVMLIWKIGPALSCGNTVVVKPAEQTPLTALHVASLIKEAGFPPGVVNIVPGYGPTAGAAISSHMDIDKVAFTGSTEVGKLIKEAAGKSNLKRVTLELGGKSPCIVLADADLDNAVEFAHHGVFYHQGQCCIAASRIFVEESIYDEFVRRSVERAKKYILGNPLTPGVTQGPQIDKEQYDKILDLIESGKKEGAKLECGGGPWGNKGYFVQPTVFSNVTDEMRIAKEEIFGPVQQIMKFKSLDDVIKRANNTFYGLSAGVFTKDIDKAITISSALQAGTVWVNCYGVVSAQCPFGGFKMSGNGRELGEYGFHEYTEVKTVTVKISQKNS

binding [2]: binds
B2: Myc-tagged ALDH1A1 (pCDNA4-myc-AL-FL) (enzyme, UniProt P00352 1-501)
chain: B1 chain

binding [3]: binds
B3: GAL4 activation domain fusion of full-length human ALDH1A1 (pGADT7-ALDH1A1) (enzyme, UniProt P00352 1-501)
chain: B1 chain

binding [4]: no binding
binding [5]: no binding
B4: GFP-tagged N-terminal region of PRMT3 protein (pEGFP-PR-NTR) (domain or fragment, UniProt O60678-1 1-186)
chain: MCSLASGATGGRGAVENEEDLPELSDSGDEAAWEDEDDADLPHGKQQTPCLFCNRLFTSAEETFSHCKSEHQFNIDSMVHKHGLEFYGYIKLINFIRLKNPTVEYMNSIYNPVPWEKEEYLKPVLEDDLLLQFDVEDLYEPVSVPFSYPNGLSENTSVVEKLKHMEARALSAEAALARAREDLQKM

binding [1]: binds weakly
B5: HA-ALDH1A2 (pCDNA4-HA-ALDH1A2) (enzyme, UniProt O94788 1-518)
chain: MTSSKIEMPGEVKADPAALMASLHLLPSPTPNLEIKYTKIFINNEWQNSESGRVFPVYNPATGEQVCEVQEADKADIDKAVQAARLAFSLGSVWRRMDASERGRLLDKLADLVERDRAVLATMESLNGGKPFLQAFYVDLQGVIKTFRYYAGWADKIHGMTIPVDGDYFTFTRHEPIGVCGQIIPWNFPLLMFAWKIAPALCCGNTVVIKPAEQTPLSALYMGALIKEAGFPPGVINILPGYGPTAGAAIASHIGIDKIAFTGSTEVGKLIQEAAGRSNLKRVTLELGGKSPNIIFADADLDYAVEQAHQGVFFNQGQCCTAGSRIFVEESIYEEFVRRSVERAKRRVVGSPFDPTTEQGPQIDKKQYNKILELIQSGVAEGAKLECGGKGLGRKGFFIEPTVFSNVTDDMRIAKEEIFGPVQEILRFKTMDEVIERANNSDFGLVAAVFTNDINKALTVSSAMQAGTVWINCYNALNAQSPFGGFKMSGNGREMGEFGLREYSEVKTVTVKIPQKNS

binding [4]: binds
binding [5]: no binding
B6: GFP-tagged C-terminal catalytic domain of PRMT3 protein (pEGFP-PR-CTR) (domain or fragment, UniProt O60678-1 186-531)
chain: MKQFAQDFVMHTDVRTCSSSTSVIADLQEDEDGVYFSSYGHYGIHEEMLKDKIRTESYRDFIYQNPHIFKDKVVLDVGCGTGILSMFAAKAGAKKVLGVDQSEILYQAMDIIRLNKLEDTITLIKGKIEEVHLPVEKVDVIISEWMGYFLLFESMLDSVLYAKNKYLAKGGSVYPDICTISLVAVSDVNKHADRIAFWDDVYGFKMSCMKKAVIPEAVVEVLDPKTLISEPCGIKHIDCHTTSISDLEFSSDFTLKITRTSMCTAIAGYFDIYFEKNCHNRVVFSTGPQSTKTHWKQTVFLLEKPFSVKAGEALKGKVTVHKNKKDPRSLTVTLTLNNSTQTYGLQ

binding [1]: binds weakly
B7: HA-ALDH3A1 (pCDNA4-HA-ALDH3A1) (enzyme, UniProt P30838 1-453)
chain: MSKISEAVKRARAAFSSGRTRPLQFRIQQLEALQRLIQEQEQELVGALAADLHKNEWNAYYEEVVYVLEEIEYMIQKLPEWAADEPVEKTPQTQQDELYIHSEPLGVVLVIGTWNYPFNLTIQPMVGAIAAGNSVVLKPSELSENMASLLATIIPQYLDKDLYPVINGGVPETTELLKERFDHILYTGSTGVGKIIMTAAAKHLTPVTLELGGKSPCYVDKNCDLDVACRRIAWGKFMNSGQTCVAPDYILCDPSIQNQIVEKLKKSLKEFYGEDAKKSRDYGRIISARHFQRVMGLIEGQKVAYGGTGDAATRYIAPTILTDVDPQSPVMQEEIFGPVLPIVCVRSLEEAIQFINQREKPLALYMFSSNDKVIKKMIAETSSGGVAANDVIVHITLHSLPFGGVGNSGMGSYHGKKSFETFSHRRSCLVRPLMNDEGLKVRYPPSPAKMTQH

binding [6]: binds
B8: GAL4 activation domain fusion of the C-terminal region (amino acid residues 371–501) of Retinal dehydrogenase 1 (ALDH1A1), library clone (domain or fragment, UniProt P00352 371-501)
chain: GGGPWGNKGYFVQPTVFSNVTDEMRIAKEEIFGPVQQIMKFKSLDDVIKRANNTFYGLSAGVFTKDIDKAITISSALQAGTVWVNCYGVVSAQCPFGGFKMSGNGRELGEYGFHEYTEVKTVTVKISQKNS

binding [1]: binds weakly
B9: HA-ALDH1A3 (pCDNA4-HA-ALDH1A3) (enzyme, UniProt P47895 1-512)
chain: MATANGAVENGQPDRKPPALPRPIRNLEVKFTKIFINNEWHESKSGKKFATCNPSTREQICEVEEGDKPDVDKAVEAAQVAFQRGSPWRRLDALSRGRLLHQLADLVERDRATLAALETMDTGKPFLHAFFIDLEGCIRTLRYFAGWADKIQGKTIPTDDNVVCFTRHEPIGVCGAITPWNFPLLMLVWKLAPALCCGNTMVLKPAEQTPLTALYLGSLIKEAGFPPGVVNIVPGFGPTVGAAISSHPQINKIAFTGSTEVGKLVKEAASRSNLKRVTLELGGKNPCIVCADADLDLAVECAHQGVFFNQGQCCTAASRVFVEEQVYSEFVRRSVEYAKKRPVGDPFDVKTEQGPQIDQKQFDKILELIESGKKEGAKLECGGSAMEDKGLFIKPTVFSEVTDNMRIAKEEIFGPVQPILKFKSIEEVIKRANSTDYGLTAAVFTKNLDKALKLASALESGTVWINCYNALYAQAPFGGFKMSGNGRELGEYALAEYTEVKTVTIKLGDKNP
